Results taken from the supplement of paper PMC3334620.
Whole data set: some 33,000 sequences, median “E-score (-0.5 to 0.5)” near -0.016, cut for the highest 2% near 0.32. The list shows a part of the results.

Biological target: T1, Stp1 (UniProt B3LFK1)
T1 sequence: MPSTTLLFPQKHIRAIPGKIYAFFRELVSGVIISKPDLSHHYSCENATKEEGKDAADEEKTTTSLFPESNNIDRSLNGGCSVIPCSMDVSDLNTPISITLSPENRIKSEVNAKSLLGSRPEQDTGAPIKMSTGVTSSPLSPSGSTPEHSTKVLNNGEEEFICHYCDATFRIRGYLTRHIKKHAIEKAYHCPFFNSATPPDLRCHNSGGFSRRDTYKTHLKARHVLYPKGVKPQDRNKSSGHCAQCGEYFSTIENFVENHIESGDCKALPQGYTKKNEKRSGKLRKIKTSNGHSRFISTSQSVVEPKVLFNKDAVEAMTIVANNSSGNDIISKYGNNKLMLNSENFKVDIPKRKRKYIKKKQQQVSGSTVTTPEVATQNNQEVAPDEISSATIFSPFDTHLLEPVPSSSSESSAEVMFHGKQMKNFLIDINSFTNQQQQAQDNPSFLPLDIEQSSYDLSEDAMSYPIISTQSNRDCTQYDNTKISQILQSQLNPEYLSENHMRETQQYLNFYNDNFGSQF
Assay: PBM E-score (8-mer binding enrichment) (E-score (-0.5 to 0.5)); higher = stronger / more preferred TF binding; most listed sequences are background and not binding sites
Conditions: protein concentration: 200 nM; construct: GST-full length
Method in brief: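 Detection of bound protein used fluorescent anti-GST, with scans normalised by masliner. The proteins were GST-tagged yeast transcription factors applied at about 100-200 nM to universal all-10-mer Agilent arrays made double-stranded by primer extension. Each ungapped eight-base word, pooled with its reverse complement, was scored with an E-score from the Universal PBM Analysis Suite.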

Sequence	PBM E-score
ATGCCCGA	-0.323
CTCACTTC	-0.296
GATTTGGC	0.0165
ACGTCACT	0.00118
ATGGGGTC	-0.216
TGAGGTAA	-0.0382
CGTAAACC	-0.0814
CTCGGATA	0.102
GCTTAAGC	-0.0752
TAGACCTA	-0.157
CGTCAAGA	-0.102
GCGCGAGA	0.107
CTTCTTTC	-0.16
GAAGTCTC	-0.302
CGGAAACA	-0.0866
ACGAACGT	0.03
CATAGACG	0.023
GATACACC	0.0838
AGGCCGGA	-0.155
ATGATCAT	0.17
CGAGGGCC	-0.151
AAAGGAGG	-0.258
CAATAATC	-0.0393
ATGGTAAT	0.0391
AGATCGTA	-0.171

Sequence	PBM E-score
AACCATGG	0.0731
AGCCACGG	0.153
CGTACCAG	-0.01
AGCCGTCA	0.119
TTGGACAA	-0.137
ATGTACAT	0.128
AAACCTGA	0.0317
ACTGAAGG	-0.195
GCGCTTGA	0.115
CTAGGTGA	-0.201
ACGCACGC	0.265
CGTAGCCA	0.0118
CAGTGCAG	-0.199
GGCAGAAC	0.0544
CTTGGTAA	0.056
CGGTTGGC	0.163
GAATCGTC	-0.0739
AATATAAA	0.221
GACATCCC	-0.143
AGTCTAGC	-0.293
ATATTACA	0.151
CCAGAGGG	-0.19
ATCTTTGG	-0.101
GATCCTAA	-0.164
CTCAACAA	0.162

Sequence	PBM E-score
ATTCGAGG	-0.176
GATCGGGC	-0.0961
CCACGAGC	-0.188
ACTTTTAA	0.0475
AGTTTCCC	-0.0616
CGCGAAGA	-0.0216
AAAGCCAA	0.0958
CCCTGAAA	0.00197
CCTGTAAA	-0.2
AGATATGG	0.0188
ACTCTCGC	-0.206
AGGAACGA	-0.123
ACTCAGCT	-0.0912
ATCTGCAA	-0.145
CCGACTGC	-0.159
ACTGCGGA	0.0949
ACCGCGCT	0.077
AGACCCAC	-0.114
ATTTTAGA	-0.0553
GGTCCAAA	-0.139
GCAGACAA	0.0153
AGGAGGTA	-0.269
AGCACGCC	0.201
CAGACTTC	-0.243
CCGCTTCA	0.134

Sequence	PBM E-score
AGAGAGAT	-0.00376
GGCCCGAA	-0.0919
ATGGGTTA	-0.00335
ATCCTGAC	-0.0195
AACAGCCT	-0.118
AGCACTGA	-0.127
ACGTTATC	-0.18
AGACCGAC	-0.14
GCCACCGA	-0.0468
ATATTTTA	0.106
TCTTGCAA	0.214
CGAGTATA	-0.0563
ACATATGC	-0.203
CGCTAACA	0.0815
CGAAATCC	0.0318
TGGAGTAA	0.135
CCCAGGGA	-0.266
AGTTTATA	0.153
CCCATAAC	-0.0623
ACCCCATC	-0.246
CATGGACC	-0.0645
ACAGTTGA	-0.122
ACTGCGCA	0.0214
AATTACTG	-0.00125
AGGTAAAG	0.136

Sequence	PBM E-score
ATCAGTAG	-0.0596
ATCCGACC	-0.00026
AAGTATAT	0.181
ACTTGCGA	0.107
ACAAGCCC	-0.0425
CCGGACCA	-0.0686
CCATGTCG	-0.152
AGCTTCCG	-0.00824
CGAATTAA	0.177
AAACGTGC	-0.0181
ATGGCGTC	0.223
GTATACAC	0.12
CCTGAACC	-0.098
AGCCGGAG	0.0308
AGGATCGA	-0.124
ACAGGCAT	0.0877
CTTAGTGC	0.161
GGGGACAC	-0.338
CCTTGGAC	-0.103
AGCAAGCG	-0.131
GAAGGCAC	0.368
GGCAGCCC	-0.0258
CCATGTCA	-0.125
ATTCCGTC	-0.191
GTGTCCGA	-0.0597

Sequence	PBM E-score
AAGACCTT	-0.0467
TGTCCAAA	0.115
GTTGCGCA	-0.0876
CTTGGAAA	0.0699
GTTAAAAA	0.0582
ATCAATTC	0.0276
CCCGCTTC	-0.201
CCAGCGAG	-0.297
ACCAGCCT	-0.245
GCTTGTCC	-0.0445
AAGCCTAC	-0.0136
AGGAGGAT	-0.107
GGGGGTGA	-0.301
AACCCACT	0.00826
CACCGGGC	-0.117
AGGTATAG	-0.244
ATCCGAGA	-0.0156
CACGACCA	-0.133
CTACCTGC	0.0359
AGGCCGTC	-0.0198
GAGTACCC	-0.148
CGCCCAGC	0.0443
AGCTGGGA	-0.236
CACAGCCA	0.0107
GCGTAGGA	-0.069

Sequence	PBM E-score
CTGAACAC	0.148
AGCCATCC	0.0193
AGTTGCTC	-0.0343
ACACGCGT	0.101
GCGTCAAA	0.099
CGGTTACC	0.0175
AACGGCCA	0.214
CACTGGTC	-0.187
AAAACTTT	-0.0797
AAATGACC	-0.187
GCAACGCC	0.307
ATATTAAG	0.14
CCGATCTA	-0.137
ACAGTGGT	-0.15
GGCGGGGA	0.103
ACAGACAG	0.131
ACCAGTGG	-0.124
ACTGTCGA	-0.163
GACGTCGA	-0.0178
GGCCTAAA	-0.0904
ATCCTTTC	-0.104
AGTAGCGG	0.00328
GAATGCCA	0.134
CGAAACGC	-0.0209
AGGCCGGG	-0.163

Sequence	PBM E-score
AGATCTCC	-0.34
CGCAGAAG	-0.0151
ATACCGGA	-0.118
GGGTCGAA	-0.167
CAAGTGCG	0.0134
AGATCCAA	0.0566
CGAATACC	-0.123
AGAACTAG	-0.144
TCGCGCGA	-0.0424
TAACGTTA	-0.0405
ATTGATCC	0.0155
CTGTGCTA	-0.0189
GAGCCACA	-0.0282
CGCCAAAG	-0.143
ATAGATTG	0.0305
AAACTCAC	0.0404
ACGACTGC	-0.211
ATGTGACA	0.18
CGTAGGTA	0.0611
CCCAATCA	-0.0533
CTATCGCA	0.0466
GCCTTGTA	0.354
ATCGATTG	0.237
AACGCCAG	0.0837
GCAAGGGC	-0.0671

Sequence	PBM E-score
CTTATGCC	0.154
CACGCGCG	0.269
CCGGCACC	0.254
AACCCTGA	-0.0508
TACAAACA	0.223
TTGCCAAA	0.0139
CCCTCGCC	-0.188
CATGCCTA	-0.0468
CGAAATTA	0.208
GAACATGA	0.00429
CCGCTTAC	0.0762
ATGTGCCG	0.377
GTGGCAGA	0.0454
ATAAGAGG	0.0649
ACAAGAAG	0.042
ACCTGTAG	0.0455
CATCCCGG	-0.289
ATCCCGGC	-0.117
CTATCGGA	-0.108
AAGCACAC	-0.0973
CTAATCCC	-0.0766
CAGGCTGG	-0.214
CTGGAGTA	0.0835
CTGTGCGA	-0.0295
AAACAGCA	0.211

Sequence	PBM E-score
AACAAAGA	0.15
GCAATATA	0.187
CTAGACCC	-0.266
TGTTTCAA	0.182
ATTTCCGA	0.0422
AAGTCTGC	-0.166
AAAGCGCG	0.0803
ACGCCTAA	0.014
ACCCCCAA	-0.349
AGACTTCG	-0.232
CGCCCATC	-0.141
GCTACGGA	0.058
CAACACGC	-0.0386
CGTGAGTC	-0.238
AGACCTTG	-0.0339
CGATCTAG	-0.178
ACTCCGAT	-0.3
ATGGGCTC	-0.145
ACTAATAA	0.115
CGCGTACG	0.2
AGTTCTGC	0.108
AAACCTCC	-0.237
ACCGGCTG	-0.0577
ACGGAACA	0.133
CAAGCTTC	-0.18

Sequence	PBM E-score
CCAATAAC	0.0278
CATACCCC	-0.0963
ACCGCGAA	0.104
GCGACGTA	-0.0871
GTTATCAA	-0.0184
CTTACTGC	0.0393
CTTATGGA	-0.0787
ATCAGCGA	-0.0139
AACGTGAA	-0.0435
GCCCCTCA	0.00228
GGTCATAC	-0.199
CGACACGC	-0.04
AATAGCTC	-0.122
ATCGATCG	0.178
ATGATGGA	-0.0152
CCGGAAAG	-0.195
TGTAAACA	0.0901
CATCGCTA	0.0812
ATAACGCA	0.00911
TAACCACA	-0.022
GTAGGTAA	-0.101
AAACTAAA	0.103
ACAGCTAC	-0.29
GAAGAAAC	0.087
CTAATGTA	0.135

Sequence	PBM E-score
GGCTAACC	-0.157
GCTCGTCA	-0.0652
ACATGTAC	-0.0624
CGCATTTC	0.0727
CTTCTGTC	0.0328
CTCTGACC	-0.232
ACGGTCAT	0.0868
CGGGAAAG	-0.127
GGGAACTA	-0.0848
GGACGTAA	-0.0715
CACGGAGC	0.229
CCAAATCA	0.115
ACGGATGC	0.301
TGGATCAA	0.11
ACCCCCGA	-0.185
GCATACCA	-0.165
ACCCATGA	-0.325
CAGTCGAC	0.0565
ATAGACCC	0.0118
AGTCTGTA	-0.18
GAGCCCGC	0.0162
ATCGCATC	-0.067
AGAGTGGC	-0.0945
GGCTCCAA	0.266
GATGAAGA	-0.0141

Sequence	PBM E-score
CTTACTCA	-0.103
AGTAGAGC	-0.0318
AGCTCAAT	0.0498
CCAGCAGG	-0.154
GTGCGGTA	0.28
ACAGGAGC	-0.114
AACCTCTA	-0.104
CTGTTTTC	0.0327
ATAATGAC	-0.189
TGTCCGAA	0.115
AGGTTGAG	-0.144
AACTTCGC	0.0233
CTGCGCCA	0.106
GTTTAAAC	0.0889
ACAGGACG	-0.0475
GTAAGGAC	-0.0213
AAGAGCTT	-0.149
GTAACGGA	-0.00869
AGGTCTGC	-0.141
AACGTATC	-0.109
CCGGTACC	-0.258
ATAGAAAC	0.252
AACTGGAG	-0.133
CCTCCGTC	-0.179
GAAGTGTA	-0.125

Sequence	PBM E-score
AGTAGACG	0.0756
ACGCTATC	-0.0876
AATACTAC	0.149
TATGACCA	-0.00763
CGTGTAAG	0.155
CCCAGGAC	-0.259
GATTCCAA	0.0725
ATACTATC	0.0298
GCGTGCCA	0.206
GAATCATC	0.0551
CATCTGAA	0.0869
AGTCAGGC	0.0383
GCAAGAGA	-0.105
ACCGATTC	-0.207
GCTCGTAC	-0.0319
GGCGGTTA	0.0532
TCGAACCA	0.053
CGTCGTCA	-0.0737
ATCCGAAT	0.156
